About 450 (0.94%) of roughly 48,000 compounds were called active. Another 19% or so got no clear call; they are omitted. The call rests on the fitted dose curve; in most records, active means well fitted inhibition curve with a large enough effect; inconclusive means small, poorly fitted or top-dose-only effect; inactive means no such curve, though single readings can be large or run the other way. Some of the results follow.
test: Primary qHTS for Identification of Small Molecule Inhibitors of Huntingtin Promoter Activity; settings: HEK293 HTT promoter firefly luciferase reporter (activity 0% = vehicle and -100% = no light), 24 h; series mostly up to 57.5 µM; activity change, negative = inhibition: at the top concentration; further: nearly all actives have a fitted effect of over 50% in size
Summary of the method: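 HEK293 cells carrying firefly luciferase reporters were seeded at 2,500 per well in Opti-MEM and cultured for 24 h. They were then treated with compounds at up to 57.5 uM final for 24 h at 37 degrees C before Dual-Glo luminescence readout.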

Row | SMILES | activity change, negative = inhibition
1 | Cc1ccc(OCC(=O)N(Cc2ccc(Cl)cc2)Cc2ccco2)cc1C | inactive: -22.8%
2 | CC(C)NC(=O)C1CCC(Cn2c(=O)c3sccc3n(CC(=O)N3CCCC3)c2=O)CC1 (stereo unspecified) | inactive: 7.42%
3 | COc1ccc(NC(=O)c2ccc3c(=O)n4nc(Nc5ccccc5C)sc4nc3c2)cc1Cl | inactive: -7.4%
4 | Cc1ccccc1Nc1cc(C(=O)NC2CCCC2)c2ccccc2n1 | inactive: 0%
5 | CCN(C(=O)c1cc2c(=O)oc3ccccc3c2s1)c1ccc(C)c(C)c1 | inactive: -13%
6 | Cc1ccc(Cn2c(C(=O)O)c(CNC3CCCCC3)c3ccc(C)cc32)cc1 | inactive: -12.2%
7 | CCOc1ccccc1NC(=O)Cn1c(=O)n(Cc2nc(C)no2)c(=O)c2ccccc21 | inactive: -8.59%
8 | Cc1ccccc1C(=O)Nc1ccccc1OCc1cc(=O)n2ccccc2n1 | inactive: 2.14%
9 | Clc1ccccc1CNc1ncnc2c1nc1n2CCCC1 | inactive: -18.7%
10 | Cc1cccc(NC(=O)C2CCCN(S(=O)(=O)c3ccc4c(c3)oc(=O)n4C)C2)c1C (stereo unspecified) | inactive: -7.1%
11 | COC(=O)c1c(NC(=O)COc2ccc(C)cc2Br)sc2c1CCCC2 | inactive: 9.59% [at 11.5 µM]
12 | Cc1ccc(CNC(=O)CN(C)S(=O)(=O)c2ccc3c(c2)c(=O)n(C)c(=O)n3C)cc1 | inactive: -0.0878%
13 | CCc1ccccc1NC(=O)CN1C(=O)C2CCCN2c2ccc(S(=O)(=O)N(CC)CC)cc21 (stereo unspecified) | inactive: -5.55%
14 | CCCCCCCCCCCCCC(=O)OC(C)C | inactive: 16.8%
15 | CC(O)(P(=O)(O)O)P(=O)(O)O | inactive: 8.59%
16 | Cc1c(CNC2CCC(C)CC2)c(C(=O)O)c(C)n1Cc1ccc(Cl)cc1 (stereo unspecified) | inactive: -17.5%
17 | CCOC(=O)C(CC)Sc1ncnc2c1c(-c1ccccc1)cn2-c1ccc(OC)cc1 (stereo unspecified) | inactive: -19.4%
18 | CCS(=O)(=O)N1CC(=O)N(c2ccc(Cl)cc2C)C(C)(C(=O)NC2CCCCC2)C1 (stereo unspecified) | inactive: 9.47%
19 | O=C(CSc1nnc(-c2ccccc2)c(-c2ccccc2)n1)NCCc1ccccc1 | inactive: -5.73%
20 | Cc1ccc(C)c(N(C)C(=O)c2cc3c(s2)-c2ccccc2OC3)c1 | inactive: -1.83%
21 | CCn1c(=O)c2cc(C(=O)NCc3ccc(F)cc3Cl)sc2c2ccccc21 | inactive: -4.2%
22 | Cc1cc(C)c(OCC(=O)N(Cc2ccc(N(C)C)cc2)CC2CCCO2)c(C)c1 (stereo unspecified) | inactive: -29%
23 | Cc1cc(=O)n(CC(=O)N2CCCc3ccccc32)c2c1c(C)nn2-c1cccc(F)c1 | inactive: -11.7%
24 | CCCN(C(=O)Cc1nc(-c2ccc(OC)cc2)no1)c1ccccc1C | inactive: -24.9%

Row | SMILES | activity change, negative = inhibition
25 | CCCCOC(=O)c1ccc(OC(=O)c2sc3ncn(Cc4cccc(F)c4)c(=O)c3c2C)cc1 | inactive: 1.36%
26 | CCOC(=O)c1[nH]c(C)c(CCC(=O)Nc2ccccc2OCC)c1C | inactive: -28.4%
27 | CCC(C)NC(=O)Cn1c(=O)n(CCCCCC(=O)Nc2ccccc2)c(=O)c2sccc21 (stereo unspecified) | inactive: 21.6%
28 | Cn1c(=O)c2c(nc(NCCCCO)n2Cc2ccccc2Cl)n(C)c1=O | inactive: -15.4%
29 | COc1ccc(C(=O)Nc2nnc(SCc3cc(=O)c4cccc(F)c4[nH]3)s2)cc1 | inactive: 16.5%
30 | CN1C(=O)CC(C(=O)Nc2ccc(C(=O)O)cc2)SC1=Nc1ccc(Cl)cc1 (stereo unspecified) | inactive: -0.988%
31 | Cc1ccc2c(=O)cc(C(=O)Nc3ccc(S(=O)(=O)N4CCCCC4C)cc3)oc2c1C (stereo unspecified) | inactive: 38.5%
32 | CCN(CC)CCCNC(=O)Cn1ncc2c3ccccc3n(Cc3ccccc3)c2c1=O | inactive: -1.9%
33 | CCN(CC)c1ccc(NS(=O)(=O)c2cc(-c3onc(C)c3C)ccc2OC)c(C)c1 | inactive: -15.5%
34 | COc1cccc(-c2nnc(SCC(=O)N(C)c3ccccc3)o2)c1 | inactive: 22.4%
35 | COc1cc2[nH]c(=O)[nH]c(=O)c2cc1OC | inactive: 9.45%
36 | CC(=O)c1ccc(NC(=O)C(C)n2nc(-c3ccccc3)ccc2=O)cc1 (stereo unspecified) | inactive: -12.7%
37 | O=C(Cn1ncc2c3ccccc3n(Cc3cccc(Cl)c3)c2c1=O)NCCCc1ccccc1 | inactive: -5.76%
38 | COc1ccc(-c2c(C)nn3c(-c4ccccc4)cc(C)nc23)cc1OC | inactive: -23.2%
39 | Cc1cc(C)n(C(C)CC(=O)Nc2cccc(C#N)c2)n1 (stereo unspecified) | inactive: 1.05%
40 | CCOc1ccc(-c2nn(-c3ccc(F)cc3)c3c2cnc2ccc(F)cc23)cc1 | inactive: -5.12%
41 | Cc1ccc2oc(-c3ccc(Cl)cc3)c(O)c(=O)c2c1 | inactive: 89.1%
42 | Cc1cc(O)c(C(c2ccccc2)N2CCN(c3ccccc3)CC2)c(=O)n1Cc1ccco1 (stereo unspecified) | inactive: -2.18%
43 | CCn1cc(C(=O)NCCc2ccc(OC)c(OC)c2)c(=O)c2cc(S(=O)(=O)N3CCOCC3)ccc21 | inactive: 27.7%
44 | Cc1ccc(C(=O)Nc2nnc(S(=O)(=O)N(C)Cc3ccco3)s2)cc1 | inactive: 66.1%
45 | CC1CCN(S(=O)(=O)c2ccc3c(ccn3CC(=O)NCc3ccccc3F)c2)CC1 | inactive: -22.8%
46 | Cc1cccc(-n2nnc(-c3nc(-c4ccccc4)no3)c2N)c1C | inactive: 68.8%
47 | Cc1ccc(C)c(NC(=O)CN2CCN(C3CCCCC3)C(=O)C2=O)c1 | inactive: 0.802%
48 | COc1cccc(CNC(=O)c2ccc3c(c2)nc2n3CCOC2)c1OC | inactive: 0.46%

Row | SMILES | activity change, negative = inhibition
49 | Cc1cnc(C(=O)NCCc2ccc(S(=O)(=O)NC(=O)NC3CCCCC3)cc2)cn1 | inactive
50 | O=C(Nc1cccc(C(F)(F)F)c1)c1cc(-c2ccc(Cl)cc2)on1 | inactive: -5.74%
51 | Cc1cc(-c2ncc(CC(=O)Nc3ccc(-c4cnccn4)cn3)cc2C)ccn1 | inactive: -20.8%
52 | COCCCNC(=O)CSc1nc2cc3c(cc2c(=O)n1CCCCCC(=O)NCCc1ccc(OC)c(OC)c1)OCO3 | inactive: -10.1%
53 | COc1ccc2c(CNC3CCCC3)c(C(=O)O)n(Cc3ccccc3C)c2c1 | inactive: 4.02%
54 | CCc1nn2c(=O)cc(COC(=O)c3cccc(NC(=O)c4ccccc4C)c3)nc2s1 | inactive: -6.65%
55 | Cc1cc(C)c2c(=O)cc(C(=O)Nc3sc4c(c3C#N)CCCC4)oc2c1 | inactive: 14.9%
56 | Cc1ccccc1NC(=O)CN1C(=O)C2(SCC(=O)N2c2ccc(F)cc2)c2ccccc21 (stereo unspecified) | inactive: -9.23%
57 | COc1ccc2c(c1)c(CC(=O)Nc1cccc(F)c1C)c(C)n2C(=O)c1ccc(Cl)cc1 | inactive: -10%
58 | COc1cccc(-n2ccn(CC(=O)Nc3ccccc3F)c(=O)c2=O)c1 | inactive: -7.06%
59 | COc1ccc(C2=C(C)C(N3CCC(C(=O)NCc4ccco4)CC3)=NS2(=O)=O)cc1 | inactive: -18.3%
60 | CCc1ccccc1NC(=O)Cn1cc(C(=O)c2ccc(Cl)cc2)c(=O)c2ccc(C)nc21 | inactive: 5.43%
61 | CCOC(=O)c1[nH]c2ccccc2c1NC(=O)c1cc(OC)cc(OC)c1 | inactive: -2.44%
62 | COc1cccc(-c2ccnc3c(-c4ccccc4)c(C)nn23)c1 | inactive: -2.26%
63 | C[C@H]1[C@H](NC(=O)C(=NOC(C)(C)C(=O)O)c2csc(N)n2)C(=O)N1S(=O)(=O)O | inactive: -2.09%
64 | CCOc1ccc(NC(=O)N2CCC(CN3CCC(C)CC3)CC2)cc1 | inactive: -12.9%
65 | COc1ccc(-c2cc(C(=O)NCCc3ccc(Cl)cc3)[nH]n2)cc1 | inactive: -9.03%
66 | Cc1ccccc1-c1nc2c3c(-c4ccccc4)c(-c4ccccc4)oc3ncn2n1 | inactive: -9.41%
67 | Cc1cccc(N2CCN(C(=O)COCc3cc(-c4ccc5c(c4)OCO5)on3)CC2)c1C | inactive: -5.06%
68 | Cc1ccc(CNc2nc3c(c(=O)n(C)c(=O)n3C)n2Cc2ccc(Cl)cc2)cc1 | inactive: 6.57%
69 | CCn1c(=O)n(-c2ccc(F)c(Cl)c2)c(=O)c2sc3ccccc3c21 | inactive: -6.02%
70 | CN(C)c1ccc(NC(=O)CSc2nc(-c3ccco3)cc(C(F)(F)F)n2)cc1 | inactive: -21.6%
71 | O=C(COc1ccccc1Cl)N(Cc1ccco1)Cc1ccco1 | inactive: -13%
72 | Cc1ccccc1C(=O)Oc1cc(-c2ccc3c(c2)OCO3)cc(=O)c2c(C)oc(C)c12 | inactive: -29.6%

Row | SMILES | activity change, negative = inhibition
73 | Cc1ccc(Cl)cc1NC(=O)c1cc2c(=O)n3cccc(C)c3nc2n1C | inactive: 0.714%
74 | Cc1ccc(S(=O)(=O)c2cnc(SCC(=O)Nc3ccccc3C(F)(F)F)[nH]c2=O)cc1C | inactive: -9.06%
75 | O=C(NCc1ccc(F)cc1)c1cnc(N2CCOCC2)c2ccccc12 | inactive: -12.3%
76 | Cc1cc(C)cc(NC(=O)C2CCCN(c3cnccn3)C2)c1 (stereo unspecified) | inactive: -0.681%
77 | CCOc1cc(CNC(=O)c2ccc3c(c2)nc2n3CCCCC2)ccc1OC | inactive: -12.5%
78 | COc1ccc(-n2c(=O)c3c4c(sc3n(CC(=O)N3CCCCC3C)c2=O)CCC4)c(OC)c1 (stereo unspecified) | inactive: -5.54%
79 | Cc1ccc(N2CCN(C(=O)c3ccc(Nc4nc5ccccc5n5nnnc45)cc3)CC2)c(C)c1 | inactive: 3.85%
80 | COc1ccccc1N1CCN(S(=O)(=O)c2c(C)sc3ncn(CC(=O)Nc4ccc(C(C)C)cc4)c(=O)c23)CC1 | inactive: -11.3%
81 | CC1CCN(CCCNC(=O)CN2C(=O)CSc3ccc(S(=O)(=O)N4CCC(C)CC4)cc32)CC1 | inactive: -15.3%
82 | O=C(NC1CCCC1)c1cnn(-c2ccc(F)cc2F)c1C1CCNCC1 | inactive: -7.95%
83 | Cc1ccc(S(=O)(=O)N2CCN(Cc3ccccc3)CC2)c(C)c1NS(C)(=O)=O | inactive: -24.9%
84 | Cc1cccc(Cn2c(=O)n(CCCCC(=O)NCc3ccc4c(c3)OCO4)c(=O)c3ccccc32)c1 | inactive: -7.41%
85 | c1cc(-c2cnn3cc(-c4ccc(OCCN5CCCCC5)cc4)cnc23)ccn1 | inactive: -22.2%
86 | CCSc1nnc2c(n1)OC(c1ccc(OC)cc1OC)N(C(C)=O)c1ccccc1-2 (stereo unspecified) | inactive: -20.6%
87 | CCC(=O)O[C@]1(C(=O)COC)[C@@H](C)C[C@H]2[C@@H]3CCC4=CC(=O)C=C[C@]4(C)C3(F)[C@@H](O)C[C@@]21C (stereo partly specified) | inactive: -0.813%
88 | Cc1ccc(C2=NC(c3ccc(F)cc3)=Nc3ccc(C)cc3N2)cc1 | inactive: 2.71%
89 | COc1ccccc1OCCCCn1c(C2CC(=O)N(c3ccccc3Cl)C2)nc2ccccc21 (stereo unspecified) | inactive: -18%
90 | Cc1ccc(NC(=O)/C(C#N)=C/c2ccccc2Cl)cc1C | inactive: 2.18%
91 | CCN(CC)CCNC(=O)CN1C(=O)c2cccnc2Oc2ccc(C)cc21 | inactive: 4.07%
92 | COc1ccc(CCNC(=O)Cn2c(=O)n(-c3ccc(OC)c(OC)c3)c(=O)c3ccccc32)cc1OC | inactive: -14.5%
93 | COc1ccccc1OCC1CNC(=O)O1 (stereo unspecified) | inactive: 14.9%
94 | Cc1ccc(NC(=O)CN2c3ccccc3S(=O)(=O)c3ccccc32)cc1F | inactive: -22.8%
95 | CN(C)c1nc(Cc2ccc(NC(=O)c3ccc4ccccc4c3)cc2)nc(Cl)c1CC(=O)O | inactive: 3.86%
96 | Cc1nc(-c2ccc(S(=O)(=O)N3CCN(c4cccc(Cl)c4)CC3)cc2)co1 | inactive: -24.4%

From PubChem BioAssay AID1508623 (National Center for Advancing Translational Sciences (NCATS), 2021)
